# Measured values reported in the supplement of paper PMC4166925.
# ± gives the standard deviation of the averaged measurements. Whole data set: some 33,000 sequences, median “E-score (dimensionless, -0.5 to 0.5)” near -0.046, cut for the highest 2% near 0.36. The list shows a part of the results.
# System: T1, SpTbr T-box DNA-binding domain (GST fusion)
# T1 sequence: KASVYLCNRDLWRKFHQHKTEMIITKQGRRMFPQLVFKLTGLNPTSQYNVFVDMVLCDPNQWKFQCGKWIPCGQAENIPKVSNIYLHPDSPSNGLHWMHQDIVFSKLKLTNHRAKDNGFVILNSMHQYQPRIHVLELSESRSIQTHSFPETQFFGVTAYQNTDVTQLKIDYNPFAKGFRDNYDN
# Assay: PBM E-score of 8-mer (E-score (dimensionless, -0.5 to 0.5)); Tbr is Tbrain of the sea star Patiria miniata (Pm) or the sea urchin Strongylocentrotus purpuratus (Sp); higher = stronger binding preference; most listed sequences are background and not binding sites
# Settings: the construct has about 5 more residues each side
# How it was run: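 Expression of GST-fused Tbr T-box DNA-binding domains, each holding the full T-box plus roughly five flanking residues, was carried out in BL21 E. coli at 20 °C, with purification by glutathione affinity chromatography. Universal Agilent arrays made double-stranded by primer extension were incubated with the protein at 200 nM in PBS (pH 7.5), then scanned and quantified. All ungapped 8-mers were scored from probe intensities, and each received an enrichment E-score from the Universal PBM Analysis Suite, averaged over duplicate arrays.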
row,Sequence,PBM E-score of 8-mer
1,CACGCAGA,0.0713 ± 0.028
2,TATGGGAA,-0.231 ± 0.063
3,AAAAACGA,-0.172 ± 0.011
4,ACTACAAC,-0.109 ± 0.058
5,TCTCCGCA,0.0221 ± 0.051
6,CAGGTACC,-0.1398 ± 0.0012
7,AGTCTGCG,-0.0616 ± 0.075
8,GAAGCGTC,0.123 ± 0.0087
9,GAACGGGC,0.00965 ± 0.0033
10,CCTCCTCG,-0.0201 ± 0.02
11,CCCGACAC,0.367 ± 0.017
12,CAAGTTGG,-0.00918 ± 0.035
13,ATCCCATA,-0.0779 ± 0.035
14,ATACTGCG,-0.0126 ± 0.037
15,AGTCACAA,0.125 ± 0.025
16,CATGGTCC,-0.182 ± 0.025
17,CATGCGGC,-0.0561 ± 0.031
18,ATAGCAAA,-0.0414 ± 0.0043
19,GTATGAGA,-0.128 ± 0.015
20,GCAAGCCC,-0.159 ± 0.038
21,AAGCGCGG,0.136 ± 0.063
22,ATGAGGAA,-0.255 ± 0.039
23,CCAAGCGA,-0.092 ± 0.038
24,CCTTAATA,-0.144 ± 0.013
25,GATGCATA,-0.126 ± 0.046

row,Sequence,PBM E-score of 8-mer
1,ACTGGTGA,-0.0975 ± 0.042
2,CCCCCCCA,-0.246 ± 0.0029
3,CACTCTCC,0.0753 ± 0.021
4,CAAGATAG,-0.156 ± 0.0096
5,GGTACAGA,-0.122 ± 0.029
6,CATCCTGC,-0.379 ± 0.033
7,GCGATTAC,0.0367 ± 0.017
8,GACCGCGA,0.232 ± 0.035
9,CCACTCAC,0.256 ± 0.023
10,GCGTGAGA,0.361 ± 0.03
11,ATTTTTGC,0.0641 ± 0.1
12,AACCTTTC,-0.0391 ± 0.099
13,ATTGTCGG,0.0284 ± 0.068
14,CGGAAAAG,-0.0916 ± 0.01
15,AACCAGCA,-0.199 ± 0.019
16,CTAGAGCC,-0.0664 ± 0.059
17,CCACAACC,0.113 ± 0.015
18,AAGAGAGT,-0.132 ± 0.011
19,CAATATTC,-0.0313 ± 0.033
20,CCAGGAAC,-0.00602 ± 0.037
21,ATGCGGGG,-0.179 ± 0.033
22,CTCATTTA,-0.14 ± 0.042
23,AGGTCCAA,-0.0715 ± 0.012
24,CAGGATAA,0.00792 ± 0.035
25,AACGGATT,-0.136 ± 0.035

row,Sequence,PBM E-score of 8-mer
1,TCAAGGCA,-0.138 ± 0.0075
2,GCAATGGC,0.0976 ± 0.015
3,CCTCGGAG,-0.165 ± 0.018
4,AGCCAGAA,-0.268 ± 0.024
5,AGACAGTC,-0.158 ± 0.045
6,AACTGAAG,-0.0561 ± 0.068
7,CTCGGGAC,-0.118 ± 0.062
8,ACTGGGCG,-0.0637 ± 0.022
9,ACGGTGCA,0.13 ± 0.026
10,TACTGTGA,0.314 ± 0.024
11,ACGTTGTA,-0.029 ± 0.054
12,GGGACACC,0.226 ± 0.042
13,CAAGTGCC,0.266 ± 0.0062
14,ACCGATAG,-0.0394 ± 0.053
15,CCGGACCG,-0.101 ± 0.056
16,TACAAAGA,-0.223 ± 0.0075
17,AGCAATCC,-0.0593 ± 0.014
18,GCTTGAAC,-0.266 ± 0.079
19,CATCAGAG,-0.217 ± 0.047
20,CCGGCGGA,-0.222 ± 0.012
21,CGTCCGCC,-0.0511 ± 0.055
22,GATGCGGA,-0.151 ± 0.044
23,CCTGGAAC,-0.309 ± 0.035
24,GGGTGCAC,0.00383 ± 0.095
25,CCAGATCA,0.0835 ± 0.014

row,Sequence,PBM E-score of 8-mer
1,GTCTCTCA,0.0648 ± 0.045
2,ATAATACC,-0.0993 ± 0.047
3,AGGTCAAC,-0.223 ± 0.042
4,CCTGGCCA,-0.158 ± 0.011
5,ATCGTCGA,0.179 ± 0.044
6,GCTAGAAC,0.0971 ± 0.024
7,GGGCTGCA,-0.128 ± 0.04
8,GGCTGTAC,0.00775 ± 0.014
9,ATCGACCC,-0.0152 ± 0.019
10,AAGGATGG,-0.304 ± 0.033
11,GGTAATGA,-0.087 ± 0.063
12,CAAATTAG,-0.0851 ± 0.049
13,AAATGTTA,-0.041 ± 0.04
14,ACTGTCCC,-0.0468 ± 0.018
15,AAGAGGGC,-0.109 ± 0.052
16,TAGTCGCA,0.112 ± 0.096
17,CGAATGCG,-0.108 ± 0.013
18,CTCAGCCA,-0.142 ± 0.005
19,TAATAAAA,-0.25 ± 0.049
20,GCCAAAAC,0.0461 ± 0.055
21,CACACCCG,0.448 ± 0.016
22,CAGGGCCA,-0.0997 ± 0.041
23,CTGATTTC,-0.257 ± 0.055
24,AACGCTAT,-0.0149 ± 0.077
25,ACGATCCT,0.00609 ± 0.019

row,Sequence,PBM E-score of 8-mer
1,AAGTTATG,-0.0757 ± 0.043
2,ATCTACGA,-0.231 ± 0.04
3,ACTGGGAA,-0.0794 ± 0.024
4,GAAGTATC,0.0631 ± 0.006
5,ACGTGAGT,0.0167 ± 0.024
6,CAACCAGG,0.00242 ± 0.011
7,ACCTATAT,0.103 ± 0.077
8,AGAGCACA,-0.129 ± 0.05
9,TACGACCA,-0.249 ± 0.12
10,AATCGCTC,-0.00889 ± 0.0063
11,CCGGTAGA,-0.193 ± 0.061
12,AGCTCCAG,-0.378 ± 0.075
13,CCGCGATA,0.194 ± 0.012
14,CATTTTAA,-0.16 ± 0.071
15,GCACGAGA,-0.0609 ± 0.1
16,GCCGGTTA,-0.0813 ± 0.011
17,CAATTAGA,-0.0923 ± 0.011
18,CACGTGAC,0.286 ± 0.042
19,CCATCGGC,0.0735 ± 0.048
20,CTCTTCAC,0.292 ± 0.018
21,AATAATCA,0.0678 ± 0.091
22,GCTTTTGA,-0.129 ± 0.032
23,CATCATGG,-0.23 ± 0.014
24,CCGGTGTC,0.18 ± 0.047
25,ACAGCGTG,0.0451 ± 0.034

row,Sequence,PBM E-score of 8-mer
1,ACTTGGTG,0.193 ± 0.044
2,AGAGAACT,-0.132 ± 0.12
3,AGCCCGAA,-0.165 ± 0.087
4,CAAGTCGA,-0.0354 ± 0.098
5,CGCACGAA,0.0926 ± 0.039
6,GACTTCAA,-0.115 ± 0.083
7,GGTTTATA,-0.18 ± 0.079
8,GATCGTCA,0.127 ± 0.069
9,AAGAGCAG,-0.0507 ± 0.0063
10,ACTCGGAT,-0.17 ± 0.042
11,AAGCTATG,-0.194 ± 0.0042
12,TCGCTCCA,-0.0758 ± 0.028
13,GCACAACA,0.144 ± 0.058
14,ACCACTGC,-0.165 ± 0.036
15,AGGACGCA,-0.093 ± 0.014
16,CCCCGCGG,-0.0278 ± 0.0019
17,GGTCGCTA,0.00359 ± 0.0094
18,ATATCAGA,-0.222 ± 0.003
19,TCCTCCGA,-0.252 ± 0.0093
20,GTAGATAA,-0.151 ± 0.039
21,CGTGTTTC,0.0757 ± 0.044
22,TCGCCGAA,-0.051 ± 0.061
23,TAAGTCCA,-0.244 ± 0.011
24,ACACAAGT,0.0616 ± 0.051
25,ATTCTCTA,-0.0621 ± 0.03

row,Sequence,PBM E-score of 8-mer
1,CCAGATGC,-0.178 ± 0.038
2,GACGCCCC,0.136 ± 0.099
3,CCAAAGAC,-0.118 ± 0.045
4,ATAACCAG,-0.0976 ± 0.025
5,ATCGCCAG,0.236 ± 0.038
6,AAGCGTAG,-0.0374 ± 0.022
7,AATGAGAT,-0.104 ± 0.02
8,GCTAGACC,-0.168 ± 0.019
9,GTTACGTA,-0.0148 ± 0.022
10,CATAGAAA,-0.183 ± 0.056
11,ATGCAGGA,-0.192 ± 0.019
12,AGCGATCC,-0.0625 ± 0.056
13,AGCTCCCT,-0.0894 ± 0.008
14,GCTCTGGA,-0.27 ± 0.033
15,AACGATGT,0.0627 ± 0.015
16,CAGGCATG,-0.269 ± 0.044
17,CAGCGACG,0.0381 ± 0.017
18,CGCAAGAC,0.07366 ± 4.2e-05
19,GCGGGATA,-0.076 ± 0.039
20,AGGAGACG,-0.168 ± 0.0035
21,CCACACAG,0.168 ± 0.027
22,ATACATAA,-0.146 ± 0.042
